In the supplement of paper PMC9174493 one finds NF-kB reporter data, which are given here for eleven molecules.

This is one part of the list. Single values of this set are uncertain. Values with irradiation are relative to irradiated vehicle.
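Note: viability correction based on the alamar blue assay, with concentrations leaving 10% survival or less dropped.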

The test system of this experiment is A549-Dual. Kind of experiment: NF-kB reporter (SEAP) activity, viability-corrected, relative to vehicle (fold change vs vehicle); higher = more activation of STING-IRF / NF-kB immune response reporter. The note with it: 10 µM; irradiation: 8 Gy/4 fr.
Regarding `CC1COc2c(N3CCN(C)CC3)c(F)cc3c(=O)c(C(=O)O)cn1c23` (stereo unspecified) [Levofloxacin], the NF-kB reporter stood at 0.683.

Take `CC(=O)Oc1cc2c(s1)CCN(C(C(=O)C1CC1)c1ccccc1F)C2.Cl` (stereo unspecified) [Prasugrel Hydrochloride]: the NF-kB reporter is 0.899.

In the case of `O=C1OC2(c3ccc(O)cc3Oc3cc(O)ccc32)c2ccccc21` [Fluorescein], the NF-kB reporter was 1.42.

`[OH][Al]([OH])[OH]` [Aluminium hydroxide] came in with an NF-kB reporter of 1.37.

As for `NCCC(O)C(=O)NC1CC(N)C(OC2OC(CN)C(O)C(O)C2O)C(O)C1OC1OC(CO)C(O)C(N)C1O.O` (stereo unspecified) [Amikacin hydrate], the NF-kB reporter worked out at 0.791.

Turning to `NC(=O)N1c2ccccc2C=Cc2ccccc21` [Carbamazepine], the NF-kB reporter worked out at 0.646.

`CC(C)(O)c1ccccc1CCC(SCC1(CC(=O)[O-])CC1)c1cccc(/C=C/c2ccc3ccc(Cl)cc3n2)c1.[Na+]` (stereo unspecified) [Montelukast Sodium] returned an NF-kB reporter of 0.57.

Turning to `CCCc1nn(C)c2c(=O)[nH]c(-c3cc(S(=O)(=O)N4CCN(C)CC4)ccc3OCC)nc12` [Sildenafil], the NF-kB reporter worked out at 1.02.

In turn, `COC1/C=C/OC2(C)Oc3c(C)c(O)c4c(O)c(c(/C=N/N5CCN(C)CC5)c(O)c4c3C2=O)NC(=O)/C(C)=C/C=C/C(C)C(O)C(C)C(O)C(C)C(OC(C)=O)C1C` (stereo unspecified) [Rifampin] yielded an NF-kB reporter of 0.991.

For `CCCNC(=O)NS(=O)(=O)c1ccc(Cl)cc1` [Chlorpropamide], the NF-kB reporter was determined as 0.805.

`C=C(C)C1CCC2(CO)CCC3(C)C(CCC4C5(C)CCC(O)C(C)(C)C5CCC43C)C12` (stereo unspecified) [Betulin] gave an NF-kB reporter of 2.34.
